Results reported in PubChem BioAssay AID488969 (Vanderbilt High Throughput Screening Facility, 2010).
Over roughly 110,000 compounds, “z-score” has its median near -0.1; the highest 2% begin near 2. The list shows a part of the results. Active and inactive are the calls of the source.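 The calls were made as follows: active = z-score in the third read window above 3 or below -3; inactive = the rest.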

These compounds were tested against Metabotropic glutamate receptor 8 (Rattus norvegicus) (UniProt P70579) (assay: mGluR8 Gi/Go-coupled signaling modulation – cell-based, rat, thallium flux, HTS, primary screen (AID 488969)). Settings: HEK293 rat mGluR8, GIRK (G protein-gated inwardly rectifying potassium channel) thallium flux, FluoZin2; at 10 µM; stronger effect = higher value; submaximal glutamate (EC20) added with thallium.
UniProt P70579, sequence (P70579 whole entry, looked up): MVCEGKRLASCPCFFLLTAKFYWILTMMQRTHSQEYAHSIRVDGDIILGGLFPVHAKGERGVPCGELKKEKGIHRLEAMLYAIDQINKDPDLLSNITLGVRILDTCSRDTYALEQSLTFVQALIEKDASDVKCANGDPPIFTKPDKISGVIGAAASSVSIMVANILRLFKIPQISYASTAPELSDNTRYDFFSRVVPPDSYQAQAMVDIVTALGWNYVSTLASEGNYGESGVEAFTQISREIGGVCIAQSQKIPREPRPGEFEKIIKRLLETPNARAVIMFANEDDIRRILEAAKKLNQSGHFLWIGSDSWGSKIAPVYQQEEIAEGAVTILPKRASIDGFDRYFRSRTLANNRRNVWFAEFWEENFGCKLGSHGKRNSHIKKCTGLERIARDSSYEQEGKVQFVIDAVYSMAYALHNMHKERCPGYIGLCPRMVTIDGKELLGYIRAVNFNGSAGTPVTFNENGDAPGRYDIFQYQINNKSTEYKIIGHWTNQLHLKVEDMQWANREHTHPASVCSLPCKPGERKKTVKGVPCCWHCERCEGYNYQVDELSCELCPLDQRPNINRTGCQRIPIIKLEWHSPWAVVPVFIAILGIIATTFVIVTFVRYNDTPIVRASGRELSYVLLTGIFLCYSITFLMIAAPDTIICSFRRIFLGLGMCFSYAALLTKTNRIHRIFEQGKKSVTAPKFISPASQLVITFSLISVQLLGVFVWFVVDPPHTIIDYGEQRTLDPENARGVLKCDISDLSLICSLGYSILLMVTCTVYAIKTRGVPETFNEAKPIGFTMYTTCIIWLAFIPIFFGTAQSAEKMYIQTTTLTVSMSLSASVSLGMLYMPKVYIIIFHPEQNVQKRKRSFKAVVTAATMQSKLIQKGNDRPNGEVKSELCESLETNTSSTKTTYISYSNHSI

Compound | z-score
Cc1noc(C)c1S(=O)(=O)N(CC(=O)NCc1ccc2c(c1)OCO2)c1ccc(C(C)C)cc1 | -0.616
Cc1nnc(-c2ccccc2)c(=O)n1/N=C/c1c(O)ccc2ccccc12 | -1.38
CCCCOC(=O)Nc1ccc(S(=O)(=O)Nc2nc(C)cc(C)n2)cc1 | -0.246
Cc1nn(Cc2ccc(Cl)cc2)c(C)c1NC(=O)C(c1ccccc1)c1ccccc1 | -0.308
CCCn1c(SCC(=O)N2CCCc3ccccc32)nnc1-c1ccccn1 | -0.0622
c1csc(C(c2nnnn2C2CCCCC2)N2CCCC3(CCCCC3)C2)c1 (stereo not given) | 0.522
CC(C)c1[nH]c(=O)c(C#N)c2c1COC(C)(C)C2 | 0.293
COc1cccc(C2=CC(c3ccc(N(C)C)cc3)n3ncnc3N2)c1 (stereo not given) | -0.173
CCOC(=O)c1ccc(N2C(=O)c3n[nH]c(C)c3C2c2ccco2)cc1 (stereo not given) | -1.12
COc1ccccc1/C=c1\sc2nc(-c3ccco3)nn2c1=O | -0.0605
COc1ccccc1CCNC(=O)C1CCCO1 (stereo not given) | 1.49
C/C(=N\NC(=O)CSCc1ccccc1Cl)c1cccc(NC(=O)c2ccccc2)c1 | -0.789
CC1(C)Oc2ccc(C(=O)N3CCOCC3)cc2N(CC(=O)N2CCOCC2)C1=O | -0.908
CCOC(=O)Nc1sc(NS(=O)(=O)c2ccccc2)nc1C | 0.0431
N/C(=N\OC(=O)N1CCOCC1)c1ccc(Cl)cc1 | -0.107
O=C(Cn1nnc2ccccc21)C1CC1 | -0.287
Cc1cccc(S(=O)(=O)NCCC(=O)OCC(=O)Nc2ccc(C#N)cc2)c1 | -0.253
Fc1ccc2nc(Nc3nc4c(F)cc(F)cc4s3)sc2c1 | active: 6.16
O=C(Nc1ccn(-c2ccccc2)n1)c1ccccc1Br | -0.0878
CC(=O)c1ccc(N(C(=O)Cn2nnc3ccccc32)C(C(=O)NC2CCCCC2)c2cn(C)nc2C)cc1 (stereo not given) | -0.0402
O=C(CSc1ncc(C(F)(F)F)cc1Cl)N1CCN(S(=O)(=O)c2ccc3ccccc3c2)CC1 | -0.175
Cc1ccc(Cl)cc1N1CCN(C(=O)Cn2ccc3ccccc3c2=O)CC1 | 0.1
CCN(CC)C(=O)c1ccc2c(c1[N+](=O)[O-])C(=O)c1ccccc1C2=O | -0.162
c1ccc(Sc2nc(N3CCCCC3)nc(N3CCCCC3)n2)nc1 | -1.53

Compound | z-score
COc1ccc(-c2[nH]ncc2/C=N/NC(=O)c2cc(Br)ccc2O)c(OC)c1 | 0.0477
Cn1c(-c2ccccc2)cc(=O)c2ccccc21 | -0.596
Cc1cc(OCC(=O)O/N=C(\N)c2ccccc2)cc(C)c1Cl | -0.433
COc1ccccc1CNS(=O)(=O)c1cc(C)ccc1OC | 0.0628
CC(C)CNC(=S)N1CCN(C(c2ccccc2)c2ccccc2)CC1 | -0.358
COc1ccc2c(c1)C(=O)N(c1ccccc1)C(=O)C2 | 0.178
c1ccc(-c2nn3c(C4CCCCC4)nnc3s2)nc1 | -1.25
CCN(Cc1cc(=O)n2ccsc2n1)c1cccc2ccccc12 | -0.0371
N#CCC(=O)N/N=C/c1ccc(Sc2nc3ccccc3s2)o1 | 0.0378
COc1ccc2oc(=O)c(C(=O)NCc3ccc4c(c3)OCO4)cc2c1 | -0.0693
Cc1c(NC(=O)N2CCCCCC2)c(=O)n(-c2ccccc2)n1C | -0.127
O=C(NCc1cccnc1)NC(C(F)(F)F)C(F)(F)F | 0.422
Cc1cccc(NC(=O)C2Cc3ccccc3CN2C(=O)OCc2ccccc2)c1C (stereo not given) | -0.188
COc1ccc(S(=O)(=O)N2CCC(C(=O)NCc3cccc(OC)c3)CC2)cc1 | -0.371
COC(=O)c1ccc(NC(=S)NC(=O)c2c(Cl)cnn2C)cc1 | active: 10.1
C/C(=C1/SC(=S)N(CCC(=O)O)C1=O)c1ccc(O)cc1 | -0.179
COc1cc(C(=O)Oc2cccc(C=O)c2)cc(OC)c1OC | -0.494
COc1ccc2nc(N3C(=O)CC(Cc4ccc(C)cc4)C3=O)sc2c1 (stereo not given) | 1.9
O=C(CN1CCN(S(=O)(=O)c2ccc(Cl)cc2)CC1)Nc1ccc(N2CCOCC2)cc1 | -0.0764
Cc1ccc(NC(=O)c2ccc(-c3nn(C)c(=O)c4ccccc34)cc2)cc1 | -1.73
O=c1c2ccccc2nc(-c2ccco2)n1/N=C/c1ccco1 | -0.704
CCC(C)NC(=O)CSc1nc2ccccc2c(=O)n1Cc1ccc(OC)cc1 (stereo not given) | active: 3.19
Cc1c(C(=O)CN2CCOCC2)[nH]c2ccccc12 | -0.114
O=C(COC(=O)CCc1nc2ccccc2n1-c1ccccc1)Nc1cccc(Cl)c1 | 0.245

Compound | z-score
Cc1ccc(N(C)C(=O)N2CCN(c3ccccn3)CC2)cc1 | -0.0501
Cc1ccc(S(=O)(=O)Cc2ccc(C(=O)N3CCCC3)o2)cc1 | -0.0492
Cc1occc1C(=O)NCc1ccc(C(=O)O)o1 | 0.00164
COc1ccc(C(=O)SC2=NCCS2)cc1OC | -0.155
Cc1cc(=O)n2nc(N3CCC(C(=O)NC(C)c4ccccc4)CC3)sc2n1 (stereo not given) | -0.214
Cn1nc(C(=O)Nc2nc3ccccc3[nH]2)c2ccccc2c1=O | -0.125
COc1ccc(CC(=O)NCc2nnc(SCCOc3ccccc3)n2C)cc1 | -0.0997
CC1=C(OC(=O)c2ccc(Br)cc2)C(C)(C)C(c2ccccc2)OC1=O (stereo not given) | -0.257
COC(=O)c1ccc(COc2ccccc2[N+](=O)[O-])o1 | -0.593
CC(C)/C=N/NC(=O)c1cccc(N2CCCC2=O)c1 | -0.283
Cc1cccc(C)c1N1C(=O)c2ccccc2C1=O | 0.111
CCOC(=O)C(Cc1ccccc1)C(=O)Nc1ccc(NC(=O)C(Cc2ccccc2)C(=O)OCC)cc1 (stereo not given) | -0.582
CCN(CC(=O)NCc1cccs1)S(=O)(=O)c1ccc(C(C)C)cc1 | -0.237
CCCNC(=S)Nc1ccc(Cl)cc1Cl | -0.0325
Cc1cccc(S(=O)(=O)C(C#N)c2nc3ccccc3nc2N2CCCC2)c1 (stereo not given) | -0.423
O=C(NCCO)/C(=C/c1ccc(Br)cc1)NC(=O)c1cccs1 | -0.0838
Cc1ccc(-n2c(N)c(C(=O)N3CCOCC3)sc2=S)c(C)c1 | 0.158
Cc1ccc(NC(=O)CNC(=O)c2cccs2)cc1S(=O)(=O)Nc1ccc(Cl)cc1 | -0.199
CCOC(=O)c1oc2cccc(OCC(O)CNC(C)C)c2c1C (stereo not given) | 0.393
CC(C)(C)OC(=O)C1C(=O)CC(C)(O)C(C(=O)OC(C)(C)C)C1c1cccnc1 (stereo not given) | -0.277
CC(C)Cn1c(NCCN(C)C)nc2c1c(=O)[nH]c(=O)n2C | -0.0936
CC(=O)c1cc(C)ccc1OC(=O)CCN1C(=O)C2C3c4ccccc4C(c4ccccc43)C2C1=O (stereo not given) | -0.138
